{"source": "paper PMC4336329", "about": "(PLoS ONE, 2015)", "note": "Out of some 310,000 compounds screened, about 2,200 (0.71%) showed an effect of 50% or more. The effect is printed as a negative number. Some of the results follow.", "data": [{"target": "human ether-à-go-go-related gene (hERG) potassium channel (human, UniProt Q12809)", "sequence (Q12809 whole entry, looked up)": "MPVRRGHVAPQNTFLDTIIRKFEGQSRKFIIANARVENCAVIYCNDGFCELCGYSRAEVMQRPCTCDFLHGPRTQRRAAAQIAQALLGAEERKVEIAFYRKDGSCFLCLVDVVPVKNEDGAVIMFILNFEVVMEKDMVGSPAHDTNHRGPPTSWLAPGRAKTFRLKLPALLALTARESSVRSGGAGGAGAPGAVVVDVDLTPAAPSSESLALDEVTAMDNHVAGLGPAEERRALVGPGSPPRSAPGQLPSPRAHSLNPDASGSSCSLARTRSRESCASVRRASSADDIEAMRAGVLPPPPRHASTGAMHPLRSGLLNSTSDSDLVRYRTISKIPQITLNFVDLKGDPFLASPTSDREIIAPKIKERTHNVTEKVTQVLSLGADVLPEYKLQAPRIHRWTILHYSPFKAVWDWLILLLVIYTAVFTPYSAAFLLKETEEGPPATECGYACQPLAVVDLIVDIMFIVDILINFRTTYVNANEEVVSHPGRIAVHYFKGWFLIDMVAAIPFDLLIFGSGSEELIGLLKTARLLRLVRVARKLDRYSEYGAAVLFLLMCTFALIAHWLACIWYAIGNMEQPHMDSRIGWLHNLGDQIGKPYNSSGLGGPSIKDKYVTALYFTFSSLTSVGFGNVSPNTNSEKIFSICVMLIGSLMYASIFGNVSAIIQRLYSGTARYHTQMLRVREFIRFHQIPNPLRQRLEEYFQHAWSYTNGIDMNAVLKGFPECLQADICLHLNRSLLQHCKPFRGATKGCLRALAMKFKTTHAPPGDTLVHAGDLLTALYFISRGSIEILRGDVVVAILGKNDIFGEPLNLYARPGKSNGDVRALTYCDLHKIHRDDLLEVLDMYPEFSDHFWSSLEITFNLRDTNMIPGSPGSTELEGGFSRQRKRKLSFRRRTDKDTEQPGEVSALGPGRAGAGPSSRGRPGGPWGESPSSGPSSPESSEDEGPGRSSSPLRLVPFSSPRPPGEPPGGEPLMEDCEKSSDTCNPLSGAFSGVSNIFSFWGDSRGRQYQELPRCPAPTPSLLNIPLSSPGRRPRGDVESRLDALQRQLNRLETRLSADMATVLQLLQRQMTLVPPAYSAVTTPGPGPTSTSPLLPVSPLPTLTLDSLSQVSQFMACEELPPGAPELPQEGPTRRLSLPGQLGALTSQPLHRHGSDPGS", "assay": "primary screen, population patch clamp on CHO cells stably expressing hERG", "units": {"hERG current change (%, negative = inhibition) at 1uM": "%"}, "values": [{"molecule": "Cc1c(Cl)ccc2c1NC(=O)C21NC(CCC(N)=O)[C@H]2C(=O)N(c3ccc(Cl)cc3)C(=O)[C@H]21", "note": "(stereo partly shown)", "hERG current change (%, negative = inhibition) at 1uM": 16}, {"molecule": "O=C(CCN1C(=O)c2ccccc2C1=O)Nc1cccc(S(=O)(=O)NC2=NCCC2)c1", "hERG current change (%, negative = inhibition) at 1uM": 17}, {"molecule": "CCCn1c(C)c(C(=O)OCC)c(O)c(-c2ccccc2)c1=O", "hERG current change (%, negative = inhibition) at 1uM": 15.1}, {"molecule": "O=c1cc(CN2CCN(S(=O)(=O)c3ccccc3)CC2)nc2sccn12", "hERG current change (%, negative = inhibition) at 1uM": 10.2}, {"molecule": "CCC(C)n1ncn(-c2ccc(N3CCN(c4ccc(OC)cc4)CC3)cc2)c1=O", "note": "(stereo not shown)", "hERG current change (%, negative = inhibition) at 1uM": 4.4}, {"molecule": "CN(C)S(=O)(=O)Oc1ccc(Cl)cc1C(=O)Nc1ccc(F)cc1F", "hERG current change (%, negative = inhibition) at 1uM": 6.77}, {"molecule": "COc1cc2c(cc1OC)CN(c1nc(CN3CCOCC3)nc3sc4c(c13)CCC(C)C4)CC2", "note": "(stereo not shown)", "hERG current change (%, negative = inhibition) at 1uM": 5.29}, {"molecule": "Nc1ccc2nc(-c3ccccc3)sc2c1", "hERG current change (%, negative = inhibition) at 1uM": 14.9}, {"molecule": "O=C(CSc1nc2ccccc2c(=O)n1-c1ccccc1)c1c[nH]c2ccccc12", "hERG current change (%, negative = inhibition) at 1uM": 14.6}, {"molecule": "COc1ccccc1NC(=O)C1CCCN(c2cc(C)nc3ncnn23)C1", "note": "(stereo not shown)", "hERG current change (%, negative = inhibition) at 1uM": -1.59}, {"molecule": "CCN(CC)CCNC(=S)Nc1ccc2nc(N3CCN(CC)CC3)cc(C)c2c1", "hERG current change (%, negative = inhibition) at 1uM": 11.7}, {"molecule": "CCOc1cccc(C2/C(=C(/O)c3ccc4c(c3)CC(C)O4)C(=O)C(=O)N2Cc2cccnc2)c1", "note": "(stereo not shown)", "hERG current change (%, negative = inhibition) at 1uM": 18.4}, {"molecule": "O=C(Nc1ccccc1Cl)Nc1cccnc1Cl", "hERG current change (%, negative = inhibition) at 1uM": 14.1}, {"molecule": "Cc1ccc(-c2cccc(CN3CCN(C4CCN(C(C)C)CC4)C(CCO)C3)c2)o1", "note": "(stereo not shown)", "hERG current change (%, negative = inhibition) at 1uM": -2.71}, {"molecule": "Cc1nc2ccc(NC(=O)/C=C/C(=O)O)cc2nc1C", "hERG current change (%, negative = inhibition) at 1uM": 14.3}, {"molecule": "COc1ccc(N2C(=O)CC(NNC(=O)c3ccc(Br)s3)C2=O)cc1", "note": "(stereo not shown)", "hERG current change (%, negative = inhibition) at 1uM": 8.3}, {"molecule": "S=C(Nc1ccc(Oc2ccc(NC(=S)NC3CCCCC3)cc2)cc1)NC1CCCCC1", "hERG current change (%, negative = inhibition) at 1uM": 6.22}, {"molecule": "CN1C(=O)c2ccccc2Sc2ccc(C(=O)O)cc21", "hERG current change (%, negative = inhibition) at 1uM": 11.7}, {"molecule": "COc1ccccc1/C=C/C(=O)OCC(=O)Nc1ccccc1Sc1ccccc1", "hERG current change (%, negative = inhibition) at 1uM": 4.88}, {"molecule": "CCOc1cc(CNS(=O)(=O)c2ccc3c(c2)CC(=O)N3C)cc(OCC)c1OCC", "hERG current change (%, negative = inhibition) at 1uM": 2.1}, {"molecule": "COc1cccc(CNC(=O)CN(C)S(=O)(=O)c2ccc(Br)s2)c1", "hERG current change (%, negative = inhibition) at 1uM": 1.55}, {"molecule": "COCCn1c(=S)[nH]c2cc(C(=O)NC(C)C)ccc2c1=O", "hERG current change (%, negative = inhibition) at 1uM": 4.89}, {"molecule": "O=C(NC1CCCCCCC1)c1c(Cl)cccc1Cl", "hERG current change (%, negative = inhibition) at 1uM": 11.2}, {"molecule": "Cc1ccc(S(=O)(=O)CC(=O)c2ccccc2[N+](=O)[O-])cc1", "hERG current change (%, negative = inhibition) at 1uM": 17.5}, {"molecule": "O=C(C1=NOC(CNc2ncc(C(F)(F)F)cc2Cl)C1)N1CCOCC1", "note": "(stereo not shown)", "hERG current change (%, negative = inhibition) at 1uM": 3.61}, {"molecule": "CC(=O)N1c2ccc(S(=O)(=O)N3CCC(C(=O)NCc4ccc(C)cc4)CC3)cc2CC1C", "note": "(stereo not shown)", "hERG current change (%, negative = inhibition) at 1uM": -3.25}, {"molecule": "COc1cc(O)c(C(CC(=O)N2CCCC2)c2ccc3c(c2)OCO3)c(OC)c1", "note": "(stereo not shown)", "hERG current change (%, negative = inhibition) at 1uM": 9.32}, {"molecule": "COc1cc(NC(=O)CSc2nnnn2-c2ccccc2)cc(OC)c1OC", "hERG current change (%, negative = inhibition) at 1uM": 4.52}, {"molecule": "Cn1c(=O)oc2cc(S(=O)(=O)N3CCC(C(=O)NCc4cccs4)CC3)ccc21", "hERG current change (%, negative = inhibition) at 1uM": 8.76}, {"molecule": "COCCn1c(SCC(=O)N2CCc3ccccc3C2)nc2cc(Cl)ccc2c1=O", "hERG current change (%, negative = inhibition) at 1uM": 5.44}, {"molecule": "O=C(CN1C(=O)c2cccc3cccc1c23)N1CCN(Cc2ccc3c(c2)OCO3)CC1", "hERG current change (%, negative = inhibition) at 1uM": 8}, {"molecule": "COc1ccccc1C(=O)Nc1c2c(nn1-c1cccc(C)c1C)CS(=O)(=O)C2", "hERG current change (%, negative = inhibition) at 1uM": -14}, {"molecule": "Cn1c(C=O)c(-c2ccc3cc[nH]c3c2)c2ccccc21", "hERG current change (%, negative = inhibition) at 1uM": 23.8}, {"molecule": "O=C(ONC1=NCCCCC1)c1c(F)cccc1F", "hERG current change (%, negative = inhibition) at 1uM": 8.71}, {"molecule": "COc1ccc(NS(=O)(=O)c2cccc(C(=O)NCc3cccnc3)c2)cc1", "hERG current change (%, negative = inhibition) at 1uM": -16.5}, {"molecule": "Cc1cc(C(F)F)n2ncc(C(=O)NCCc3ccccc3Cl)c2n1", "hERG current change (%, negative = inhibition) at 1uM": 7.77}, {"molecule": "COc1ccccc1C(=O)NC(=O)COC(=O)c1nc(Cl)ccc1Cl", "hERG current change (%, negative = inhibition) at 1uM": 4.34}, {"molecule": "CC1(C)CC(=O)c2sc(NC(=O)CN3CCOCC3)nc2C1", "hERG current change (%, negative = inhibition) at 1uM": 8.74}, {"molecule": "Cc1cc(C(=O)COC(=O)c2n[nH]c3ccccc23)c(C)n1CC1CCCO1", "note": "(stereo not shown)", "hERG current change (%, negative = inhibition) at 1uM": -0.479}, {"molecule": "Cc1nc2sc3c(=O)[nH]nnc3c2c(C)c1Br", "hERG current change (%, negative = inhibition) at 1uM": 15.6}, {"molecule": "Cc1nn(C)c(Cl)c1CN1CCN(C2CCCC2)C(CCO)C1", "note": "(stereo not shown)", "hERG current change (%, negative = inhibition) at 1uM": 2.28}, {"molecule": "COc1ccc(-n2c(Cn3nnc4ccccc43)n[nH]c2=S)cc1", "hERG current change (%, negative = inhibition) at 1uM": 11.9}, {"molecule": "Cc1nnc(NCc2ccco2)c2ccccc12", "hERG current change (%, negative = inhibition) at 1uM": 0.744}]}]}
